Source: the supplement of paper PMC10441789
The other results are listed elsewhere or left out. Antibody binding of pooled human sera (four to six donors per pool; dilution not stated) to peptides of the Trypanosoma cruzi antigen TSSA on microarrays. Quantile-normalised fluorescence in arbitrary units, mean of duplicate arrays; higher = more binding. No active / inactive call. The uninfected pools are read here as the healthy donors of the same country. The strongest signals lie near the top of the scale (about 60,000).

What follows are sequences tested on pooled sera of uninfected people, Brazil (assay: antibody binding signal (normalised fluorescence) (arbitrary fluorescence units); higher = stronger serum antibody binding to peptide).
Method: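 Microarray of overlapping 15-residue peptides of the four Trypanosoma cruzi TSSA reference variants and 8- to 13-residue peptides of TSSAII 24-62, probed with one serum pool per country.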

Row | Sequence | antibody binding signal
1 | TANGGSTSSTPP | 271
2 | GEAPSQPGASSGE | 114
3 | NGGSTISTPPSGTDK | 637
4 | SSTPPSGTENKP | 390
5 | PATGEAPSQPGA | 326
6 | ACTTANGGSTISTPP | 190
7 | SSTPPSGTEN | 129
8 | SSTPPSGTENK | 268
9 | EAPSQPGA | 213
10 | SQPGASSGEAEAS | 107
11 | PPSGTENKPA | 499
12 | QPGASSGEAEAS | 107
13 | TPPSGTENKPA | 621
14 | APSQPGAS | 286
15 | SGTENKPATGE | 198
16 | TPPSGTENKPATGEA | 530
17 | PSQPGASSGEA | 154
18 | SGTENKPATG | 438
19 | TSSTPPSGTEN | 140
20 | AAGEAPSPSGASSGE | 145

Row | Sequence | antibody binding signal
21 | TPSPSGASSGEAEAS | 120
22 | GSTSSTPPSG | 391
23 | GGSTSSTPPSG | 550
24 | PPSGTENK | 377
25 | EAPSQPGASSG | 297
26 | CTTANGGSTSSTPPS | 634
27 | ANGGSTSSTPPSG | 448
28 | QPGASSGEA | 185
29 | GTENKPATGEAPSQP | 459
30 | ATGEAPSQP | 195
31 | STPPSGTENKPATGE | 408
32 | PATGEAPSQPGASSG | 545
33 | KTAAGGTPSPSGASS | 649
34 | GGSTSSTPPGTDKKT | 112
35 | EAPSQPGASSGEAEA | 104
36 | TPPGTDKKTAAGGTP | 626
37 | PGASSGEA | 176
38 | TAAGEAPSPSGASSG | 2410
39 | GTENKPATGEAP | 411
40 | PSGTEKKAAAGEAPS | 224
